Assay results as given in patent US20250388684A1 (published 2025).

Assays:
[1] = biological target: T1, human CCR8 (C-C chemokine receptor type 8) (human, UniProt P51685 1-355); test: FACS cell binding; Control
[2] = biological target: T1, human CCR8 (C-C chemokine receptor type …); test: FACS cell binding; human plasma 37°C 14 Day
[3] = biological target: T1, human CCR8 (C-C chemokine receptor type …); test: FACS cell binding; human plasma 37°C 7 Day

T1 sequence (P51685 whole entry): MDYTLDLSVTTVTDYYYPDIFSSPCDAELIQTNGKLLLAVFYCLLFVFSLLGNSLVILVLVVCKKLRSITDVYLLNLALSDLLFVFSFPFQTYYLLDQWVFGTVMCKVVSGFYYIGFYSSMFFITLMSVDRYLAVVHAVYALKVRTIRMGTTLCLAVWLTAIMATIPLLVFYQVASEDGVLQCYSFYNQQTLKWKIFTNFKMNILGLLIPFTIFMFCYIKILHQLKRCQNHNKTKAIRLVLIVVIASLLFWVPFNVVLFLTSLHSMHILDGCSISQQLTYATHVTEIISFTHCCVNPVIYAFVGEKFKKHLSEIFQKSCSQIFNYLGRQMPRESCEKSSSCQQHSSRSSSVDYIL

B1: 13F3H6-hz (humanized anti-human CCR8 monoclonal antibody, human IgG1) (antibody)
heavy: EVQLVESGGGLVQPGESLRLSCAASGFTFNAYAMNWVRQAPGQGLEWVARIRTKSNNYATYYADSVKGRFTISRDDSKNTLYLEMNSLRAEDTAVYYCVRHKKVREGYAMDYWGQGTLVTVSS[left out - human IgG1 constant region]
light: DIVLTQSPASLVLSLGQRATISCRASKSVSTSGYTYMHWYQQKPGQPPKLLIYLASNLESGVPARFSGSGSGTDFTLNIHPVEEEDAATYYCQHSRELPFTFGSGTKLEIKRTVAAPSVFIFPPSDEQLKSGTASVVCLLNNFYPREAKVQWKVDNALQSGNSQESVTEQDSKDSTYSLSSTLTLSKADYEKHKVYACEVTHQGLSSPVTKSFNRGEC
- EC50 [1]: 0.0367 µg/mL
- EC50 [2]: 0.0424 µg/mL
- EC50 [3]: 0.0426 µg/mL
